The list shows a part of the results.

The labels stand for the following.
B1: 139369262_139369382_2819_CDS_ENSG00000148396_ENST00000313050|human|control|control (ssRNA)
RNA: GGGAGUUCUACAGUCCGACGAUCCUCUGGAACUGGCUGGGAUGGUGGUUGAACCAGCAAAUUAGCAGGCUGAUUAGAAACCAUUUCGGAAGCACCAGAACCUUGUGGAAAAUUACUUUGGGCAACACUGCUAGGCAGAGACAACAACAGAGGAUUGAGCAUCA
B2: chr8:104442852:104442853:+_ENSG00000164934_ENST00000297579|hu_mus|motif|central (ssRNA)
RNA: GGGAGUUCUACAGUCCGACGAUCCCUCAUUUCCAGGAUAACCUUUUUCAAAGGAGUAGCUUGCCGCAUAUCAUACAGUACGGUAUUCCUAUCAGAAGCACAACUUCCCAAGAGAAAUGUCUCAACAGGGUUAAAUUUAACACUCAACAGAGGAUUGAGCAUCA
B3: chr1:151372964:151372965:+_ENSG00000159377_ENST00000290541|hu_mus|FALSE|FALSE (ssRNA)
RNA: GGGAGUUCUACAGUCCGACGAUCCUUGGAGCGGCGGCUGUACAUGGCUCUUGUCAACCAUGAAUGAAUAGCUCUAGGGCUAUAGCUGUGUCCAUCUCCCAACAGCUCUUCAUCAAUCACCAUCUGGCCGAGAACUUGUUUCAACAACAGAGGAUUGAGCAUCA
B4: chr10:124922180:124922181:+_ENSG00000154473_ENST00000368858|hu_mus|FALSE|FALSE (ssRNA)
RNA: GGGAGUUCUACAGUCCGACGAUCUCCGUCAUUACUGAAGGCAAGGGAAGCGAUGCUGGUGGGGUACCGAUGGAACUGGCACAGGCGCUUCUUGUUAAAUGGGUCCCAAAUAUUGACGAAUCCAUCCGAACCACCUGUGGCAAACAACAGAGGAUUGAGCAUCA
B5: chr16:45382771:45382772:-_ENSMUSG00000022661_ENSMUST00000163230|mus_mus|mus_mus_mus_hu_True|8_98 (ssRNA)
RNA: GGGAGUUCUACAGUCCGACGAUCCUGGGUCAUGUUAUGGGCCCAAUGGACAGGGAGGGCAUGCUUCUCAAAAAAUGUGAGCUAUUGUCUAAGACUAACAAUAUUUAUCUAGCUAUAAAAAUAAGUUUUAAAUGGACGUUAAGACAACAGAGGAUUGAGCAUCA
B6: 118889628_118890881_213_CDS_ENSG00000196655_ENST00000528230|human|control|control (ssRNA)
RNA: GGGAGUUCUACAGUCCGACGAUCCUGGGAGCCGAUGGCAAAGAGCCUGCCAUUCACGUCCAUGCCAUUGAUGGCCAGCACUGCAUGACCCACUCGGAUGCCGUCCCGCUGGCCGAAAGCAACCAACACACGCUCAUCGUGUAGCAACAGAGGAUUGAGCAUCA
B7: 76467099_76467472_1202_CDS_ENSMUSG00000059323_ENSMUST00000168185|mouse|control|control (ssRNA)
RNA: GGGAGUUCUACAGUCCGACGAUCGAACCAAGUCUUAGCUUCCUCCAGAGCGUUGCCCUUGCGCAGCCUCAGUUCUUCCUCAUAGUGGUGCACAGCCUUGCGGUGAUCCUUCAUGUCUCCCAGUGUGGUGGCCAGGGAUACGUGCAACAGAGGAUUGAGCAUCA
B8: 77926821_77926941_300_CDS_ENSG00000138758_ENST00000541121|human|control|control (ssRNA)
RNA: GGGAGUUCUACAGUCCGACGAUCUUUAUUUAUCUGGUCUCCAAAUCCCACGGUGUCAACAAUGGUUAACUUCAGCCGUACAUUGCUUUCCUGAAGCUCAUAACUUCUGGCUUUUAACCGAACACCUGGUUCAUUGUGAGUAGCCAACAGAGGAUUGAGCAUCA
B9: 178685600_178685720_3448_CDS_ENSMUSG00000057335_ENSMUST00000057037|mouse|control|control (ssRNA)
RNA: GGGAGUUCUACAGUCCGACGAUCAACAGAUGCUUUGUCAGCAUCAGCAAGUUCACUGUCAGAAGCUUCACCAAGCCGGGCUCUUCGCAGGAGGGAAGUCCGGGUGGGCCGUGGCCUUGGGAGAGUAGUGGAUUUGCUUGUUGACAACAGAGGAUUGAGCAUCA
B10: chr9:26842284:26842285:-_ENSG00000120159_ENST00000333916|hu_hu|motif|central (ssRNA)
RNA: GGGAGUUCUACAGUCCGACGAUCAAUUAAAUGAUGUGGCUUUGUUCAAACAUACCUAAAAUUCAAAAUCAAGUUAAAUACCGGGGCUGGCUUUUUUAUAUCACCAGCUUUCAUUAGGGCUUUAAUCGCUCUUGCCCUCAUCUCCAACAGAGGAUUGAGCAUCA
B11: chr17:57737884:57737885:+_ENSG00000141367_ENST00000269122|hu_mus|FALSE|FALSE (ssRNA)
RNA: GGGAGUUCUACAGUCCGACGAUCGUUUCCCUGGGCGAAGAGAGCAUUAAAUUUCCGGGCAAAGAGUUCUUCAGCACCAGCUAAGUUGUUCCGCACAGCCAUUCUCAGAGCCAAGUCAGGAUUUUGUAGGACAUUGGUGAUAUACAACAGAGGAUUGAGCAUCA
B12: chr1:243329018:243329019:-_ENSG00000143702_ENST00000366542|hu_hu|FALSE|FALSE (ssRNA)
RNA: GGGAGUUCUACAGUCCGACGAUCCAAUUUAGUAGGUGUCCACUGAGCCUCCUCCCUUUGUUCUUGUUGUUGAAGUUUUGCUAAUGUUUGCUUUACCAAAGAAGUUUCCUUAUCAGUUUCACUUUUCUCUUUUCCAGGAGCAGACAACAGAGGAUUGAGCAUCA
B13: chr5:38528984:38528985:-_ENSMUSG00000029126_ENSMUST00000031009|mus_mus|FALSE|FALSE (ssRNA)
RNA: GGGAGUUCUACAGUCCGACGAUCGAUUCAGAUUGAAACAUAAACAUACUUUUCUUACAAAGAUUGUGGACUUAGAUAUUCUAUUUGCAAGGUGCCACAUCAGCCCCCCCCACCAGCCGUCCUGCCCCUUCCCACAGCACAGGACAACAGAGGAUUGAGCAUCA
B14: 140291447_140297527_2219_CDS_ENSG00000164134_ENST00000296543|human|control|control (ssRNA)
RNA: GGGAGUUCUACAGUCCGACGAUCAGUUUCAACCUUGGCCAGUUUCUCUGGAAUAAGUUCUUCUUUUGGACCUCCUAUCUCCUCAUCAUCAUCAUCCUUCUUCUUUUUCUGAUUUCUCUGCUGCUUUUCUUUUUCUGCAUUUUUCAACAGAGGAUUGAGCAUCA
B15: chr7:150721943:150721944:-_ENSMUSG00000059119_ENSMUST00000072727|mus_hu|FALSE|FALSE (ssRNA)
RNA: GGGAGUUCUACAGUCCGACGAUCCACCUGAAGUUGUUUCAAUGCAUUAAUUCUUCUUUUUACUGCUUUAGGUAAAGUUUCGAUGUAGCUGGAAGGGGUGUGAGGGACAUUGUCAAGUCGCUCCUGUAAAGCUGCCAGAACUCGCAACAGAGGAUUGAGCAUCA
B16: chr8:95500983:95500984:-_ENSG00000164944_ENST00000437199|hu_hu|hu_hu_hu_mus_True|28_58 (ssRNA)
RNA: GGGAGUUCUACAGUCCGACGAUCAGAACACAUCUAUCGAGUAAAGGACCGUACAUGACGGCCUCUACCACUGCCUCCCACUAACAACUUUCCUCUCGAGCCUCCACCUGCCGCUAUUGUACUAGCCCAGGACGGUCCCAGGCCCAACAGAGGAUUGAGCAUCA
B17: 46723653_46724993_156_CDS_ENSG00000091651_ENST00000219097|human|control|control (ssRNA)
RNA: GGGAGUUCUACAGUCCGACGAUCCAGGCACAUGACUGCACUGCUGGUCUCCGUGGUGCGUGCGGAGAGGCCGACACACUUCACCCGGGACAGGCGCAAGUACUCCUCUGCUUUCCUCAGCAUGUCGGGCUCGGCGAGGCCCAGCAACAGAGGAUUGAGCAUCA
B18: chr4:122741918:122741919:-_ENSG00000145386_ENST00000274026|hu_mus|motif|central (ssRNA)
RNA: GGGAGUUCUACAGUCCGACGAUCGUCUGGCUGCCUCUUCAUGUAACCCACUUUAGGUUUACAUUUAACCUCCAUUUCCCGGAGGUACGUGUGAAUGUCUUCUUGAUAGUCAGGUACUUCAUUAACGUUCACUGGCUUGUCUUCCAACAGAGGAUUGAGCAUCA
B19: 21566091_21566211_1653_CDS_ENSMUSG00000042453_ENSMUST00000161356|mouse|control|control (ssRNA)
RNA: GGGAGUUCUACAGUCCGACGAUCGCCAUAACCAGUUGUAUCCAUGUAGGGGGUGCAAAGCUUCCUCUCUCCAUCUUUGAGGAACACCAGUGAUAGUCCUGAUUCUACGGUUCCACAGUCUGCACCAACUACUGCUCCCAAGAUCAACAGAGGAUUGAGCAUCA
B20: chr19:34954956:34954957:+_ENSG00000126261_ENST00000246548|hu_mus|FALSE|FALSE (ssRNA)
RNA: GGGAGUUCUACAGUCCGACGAUCGAUCAGCAAAGUAUAGUCCUGGAGGAAGUCGUCUGCUUGAAGCCGGCUGCCGUUUCUAAUUCCAAAAUCAGACAACUUCUUGGGGUUAUUGGCUUCUGUCUCUCCCUCUUCUGAAGAUAUCAACAGAGGAUUGAGCAUCA
B21: chr10:7519382:7519383:+_ENSMUSG00000015757_ENSMUST00000015901|mus_mus|motif|central (ssRNA)
RNA: GGGAGUUCUACAGUCCGACGAUCAGGCUCGGGUGAUCGAUCAGGAAUUAAUAAAUCAGGAGGGUCAUCAAAUGGAUCAUCGGAAAUCACUGUAUGAUUUAUCCUUAUAUCUUGAUAUGGUACAAAAUCCUUGUCCACAAAGGUCAACAGAGGAUUGAGCAUCA
B22: chr1:115282363:115282364:-_ENSG00000009307_ENST00000339438|perfect_dup|motif|central (ssRNA)
RNA: GGGAGUUCUACAGUCCGACGAUCAUCAUCUCCUACUUUUAAGUCUUGCAGGUUGCCAUUAUACUGUGAACAGUGGAAGAAAAGUCGGGCUUGACGUUCUGAACACUGAAUAAAUCCGUAAGAGGUUAACAGUUUUUCAAUAACCAACAGAGGAUUGAGCAUCA

This assay deals with T1, UNK ZnF1-3 (human, UniProt Q9C0B0 31-174).
T1 sequence: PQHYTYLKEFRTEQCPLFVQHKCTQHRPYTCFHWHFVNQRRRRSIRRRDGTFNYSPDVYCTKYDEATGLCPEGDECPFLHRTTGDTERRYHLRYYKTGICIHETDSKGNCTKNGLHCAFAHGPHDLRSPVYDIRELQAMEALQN
The assay is described as follows: nsRBNS (natural sequence RNA bind-n-seq); RBNS binding buffer (assumed for nsRBNS): 25 mM Tris pH 7.5, 150 mM KCl, 3 mM MgCl2, 0.01% Triton X-100, 500 ug/ml BSA, 20 U/ml SUPERase-In, 4 C; UNK is unkempt and MSI1 is Musashi-1; names of the RNAs are library labels; protein concentration not given here; high values mean tight binding.
B1 came in with a binding signal of 1.74 enrichment R. The molecule B2 returned a binding signal of 1.15 enrichment R.

For the molecule B3, the binding signal is 0.844 enrichment R.

Consider B4, for which the binding signal came to 0.716 enrichment R. For B5 the value was 2.01 enrichment R; for B6, 0.495 enrichment R; for B7, 0.57 enrichment R. With B8, the binding signal came to 0.491 enrichment R. For B9 the value was 0.987 enrichment R. On to B10, for which the binding signal amounted to 0.797 enrichment R.

In the case of B11, the binding signal was determined as 2.1 enrichment R.

B12 gave a binding signal of 0.346 enrichment R. B13 yielded a binding signal of 1.34 enrichment R. Take B14: the binding signal was determined as 0.231 enrichment R. B15 returned a binding signal of 0.732 enrichment R. For B16 the value was 1.28 enrichment R; for B17, 0.57 enrichment R; for B18, 0.321 enrichment R. For B19 the value was 0.949 enrichment R; for B20, 1.09 enrichment R. B21 showed a binding signal of 0.8 enrichment R. B22 had a binding signal of 1.55 enrichment R.

The values above are taken from PMC12136788.
